Measured values as given in paper PMC10385743.

Tests used:
[1] = test system: HCV genotype 1b (strain Con1) subgenomic replicon; assay: microbe, parasite or virus in culture; type: cell-based, hepatitis C virus; details: for EC50: 72 h, luciferase, mean ± SD, read-out: Huh5-2 (HCV Replicon 1b) EC50
[2] = test system: HCV NS5A protein; assay: Western blot analysis for NS5A in Huh5-2 cells; details: serial dilutions
[3] = test system: HCV genotype 1b (strain Con1) subgenomic replicon; design: method as in PMID 31303998; details: earlier lead compounds; read-out: Huh5-2 (HCV Replicon 1b) EC50; cited from earlier work
[4] = Hepatitis C virus, Huh-5-2, 72 h

SMILES	EC50 [1, 4] [µM]	further results
CC1CCC2(NC(=O)N(CC(=O)NO)C2=O)c2ccccc21 [Compound 34, Ν-(hydroxy)-2-((4R,4′S)/(4S,4′R)-4′-methyl-2,5-dioxo-3′,4′-dihydro-2′H-spiro[imidazolidine-4,1′-naphthalene]-1-yl)acetamide]	–	anti-HCV (genotype 1b) potency in comparison with 35 [1]: eight-times-better potency; EC50 [1]: 0.98 ± 0.1 µM; effect on levels of the viral NS5A protein [2]: negative effect
CC1CCC2(NC(=O)N(CC(=O)NO)C2=O)c2ccccc21 [Compound 35, Ν-(Hydroxy)-2-((4R,4′R)/(4S,4′S)-4′-methyl-2,5-dioxo-3′,4′-dihydro-2′H-spiro[imidazolidine-4,1′-naphthalene]-1-yl)acetamide]	–	EC50 [1]: 7.31 ± 0.42 µM
O=C(CN1C(=O)NC2(CCC(c3ccccc3)CC2)C1=O)NO (centres unmarked) [Compound 36, N-Hydroxy-2-(2,4-dioxo-8-phenyl-1,3-diazaspiro [4.5]decan-3-yl) acetamide]	2.53 ± 0.11	–
O=C(CN1C(=O)NC2(CCCCC2c2ccccc2)C1=O)NO (centres unmarked) [Compound 37, N-Hydroxy-2-(2,4-dioxo-6-phenyl-1,3-diazaspiro [4.5]decan-3-yl) acetamide]	> 10	–
CN1C(=O)N(CC(=O)NO)C(=O)C12CCC(c1ccccc1)CC2 (centres unmarked) [Compound 38, N-Hydroxy-2-(1-methyl-2,4-dioxo-8-phenyl-1,3-diazaspiro [4.5]decan-3-yl)acetamide]	2.75 ± 0.96	–
CN1C(=O)N(CC(=O)NO)C(=O)C12CCCCC2c1ccccc1 (centres unmarked) [Compound 39, N-Hydroxy-2-(1-methyl-2,4-dioxo-6-phenyl-1,3-diazaspiro [4.5]decan-3-yl)acetamide]	> 10	–
CCN1C(=O)N(CC(=O)NO)C(=O)C12CCC(c1ccccc1)CC2 (centres unmarked) [Compound 40, N-Hydroxy-2-(1-ethyl-2,4-dioxo-8-phenyl-1,3-diazaspiro [4.5]decan-3-yl)acetamide]	0.34 ± 0.06	–
O=C(CN1C(=O)N(Cc2ccccc2)C2(CCC(c3ccccc3)CC2)C1=O)NO (centres unmarked) [Compound 41, N-Hydroxy-2-(1-benzyl-2,4-dioxo-8-phenyl-1,3-diazaspiro [4.5]decan-3-yl)acetamide]	> 10	–
O=C(CN1C(=O)N(Cc2ccccc2)C2(CCCCC2c2ccccc2)C1=O)NO (centres unmarked) [Compound 42, N-Hydroxy-2-(1-benzyl-2,4-dioxo-6-phenyl-1,3-diazaspiro [4.5]decan-3-yl)acetamide]	0.74 ± 0.02	–
CC(C(=O)NO)N1C(=O)NC2(CCC(c3ccccc3)CC2)C1=O (centres unmarked) [Compound 49, N-(Hydroxy)-2-(2,4-dioxo-8-phenyl-1,3-diazaspiro [4.5]decan-3-yl)propanamide]	> 10	–
CC(C(=O)NO)N1C(=O)N(C)C2(CCC(c3ccccc3)CC2)C1=O (centres unmarked) [Compound 53, N-(hydroxy)-2-(1-methyl-2,4-dioxo-8-phenyl-1,3-diazaspiro [4.5]decan-3-yl)propanamide]	8.66 ± 0.76	–
O=C(CN1C(=O)NC2(CCCCc3ccccc32)C1=O)NO (centres unmarked) [IV]	–	EC50 [3]: 0.25 ± 0.02 µM

Where two headings read alike, the source gives them in different places.
